In all, about 33,000 sequences were measured (“E-score (-0.5 to 0.5)”: median about -0.036, highest 2% from about 0.37 on). Some of the results follow.
molecular target: T1, Yer064c (UniProt P40041); assay: PBM E-score (8-mer binding enrichment) (E-score (-0.5 to 0.5)); higher = stronger / more preferred TF binding; most listed sequences are background and not binding sites; conditions: protein concentration: 200 nM; construct: GST-full length
T1 sequence: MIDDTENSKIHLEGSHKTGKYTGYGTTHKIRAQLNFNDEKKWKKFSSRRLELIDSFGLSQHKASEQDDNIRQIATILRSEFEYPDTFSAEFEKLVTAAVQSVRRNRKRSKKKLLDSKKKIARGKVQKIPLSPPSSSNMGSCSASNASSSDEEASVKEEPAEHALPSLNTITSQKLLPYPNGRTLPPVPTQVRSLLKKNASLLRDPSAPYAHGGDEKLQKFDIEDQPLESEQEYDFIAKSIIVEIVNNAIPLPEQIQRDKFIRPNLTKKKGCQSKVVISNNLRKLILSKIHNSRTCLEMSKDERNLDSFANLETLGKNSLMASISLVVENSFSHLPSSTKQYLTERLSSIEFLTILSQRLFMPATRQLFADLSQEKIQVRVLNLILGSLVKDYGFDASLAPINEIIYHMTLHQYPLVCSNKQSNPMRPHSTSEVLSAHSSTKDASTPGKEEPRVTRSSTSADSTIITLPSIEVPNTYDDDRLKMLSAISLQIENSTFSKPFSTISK
Outline: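 E-scores (a modified Wilcoxon-Mann-Whitney statistic) were assigned by the Universal PBM Analysis Suite to every ungapped eight-base word pooled with its reverse complement. The input came from universal all-10-mer Agilent arrays made double-stranded by primer extension and probed with GST-tagged yeast transcription factors at about 100-200 nM. Fluorescent anti-GST detected bound protein, and masliner normalised the scans.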

| Sequence | PBM E-score |
| --- | --- |
| AAAGGAGC | -0.151 |
| CACGCTAC | -0.185 |
| GAAGTACA | 0.0758 |
| CGATCGCC | -0.137 |
| CCAGCTAC | -0.122 |
| GAACCTCA | 0.00299 |
| GGGTCGGA | -0.146 |
| ACTGGTGG | 0.0963 |
| AAGGGTCC | -0.304 |
| CTATTACA | -0.0332 |
| CGAGTGTC | -0.0109 |
| GTGGACAA | -0.144 |
| ATCGCGCC | -0.0846 |
| GGAGTAAA | 0.118 |
| AACAGCTT | -0.122 |
| GGTTAGGA | 0.0936 |
| CGGAGCGA | -0.0437 |
| AACCATAT | 0.211 |
| CAAGTGGC | -0.179 |
| GCCAAGAA | -0.139 |
| TCTCAAAA | 0.205 |
| CGGCTCCC | -0.279 |
| CGCGCTTC | -0.101 |
| ATTCGGGG | -0.0864 |
| ATAAGCTG | -0.129 |

| Sequence | PBM E-score |
| --- | --- |
| CACCTGAC | 0.245 |
| AGACTCAT | 0.467 |
| TAGACATA | 0.259 |
| ACTCAGAG | 0.302 |
| ACGAACCT | -0.196 |
| ATTCGGAA | 0.0644 |
| CGCACAAA | 0.123 |
| AGGGTACT | -0.144 |
| ATCCAGCG | -0.21 |
| CTAGTATA | 0.166 |
| GCACCGTA | 0.0368 |
| AACTACAA | 0.0121 |
| AGTTCCGG | -0.181 |
| GCCTTACC | -0.193 |
| GAAGCCTC | -0.255 |
| TGAGTCCA | 0.397 |
| AATGATGT | 0.0164 |
| GGTGCGGA | -0.0362 |
| AGCAACGA | 0.0795 |
| ACCCTGAA | -0.0133 |
| ATTCATGC | 0.137 |
| GTTCGCTA | 0.117 |
| GAGCAGGA | -0.0527 |
| GGGGCACA | -0.185 |
| GGCAAGAA | -0.117 |

| Sequence | PBM E-score |
| --- | --- |
| GATACGCA | 0.0642 |
| GTTCTTTA | -0.0184 |
| ACACAGTG | 0.0554 |
| TAAGAACA | 0.0509 |
| GATCAACC | -0.0918 |
| ATTGAGGA | 0.0891 |
| AAGGGTGG | 0.0597 |
| AGCCACCA | 0.131 |
| ATATATAG | 0.133 |
| TCTAATAA | 0.115 |
| ACGTATGC | -0.151 |
| CTGGGATA | -0.163 |
| AATGATGA | 0.289 |
| TCGTTTAA | 0.249 |
| AGAATTTA | -0.16 |
| TCGCGACA | 0.117 |
| AAGCATGA | 0.119 |
| CCAGGGGA | -0.158 |
| CTTACCGA | -0.0159 |
| GGCGATAC | -0.0183 |
| TCGCAAAA | 0.14 |
| TCGCTCAA | 0.0645 |
| ATATCATC | -0.113 |
| CTAAACCA | 0.0559 |
| AATGTGAA | 0.0875 |

| Sequence | PBM E-score |
| --- | --- |
| ACGGATTA | 0.1 |
| TCGTACCA | 0.0567 |
| ACTGCGCT | -0.00241 |
| CCAGTCTC | -0.00302 |
| CCACCACG | -0.101 |
| GCCAAGCC | -0.289 |
| AACCTCAC | -0.134 |
| ACTCTGGA | 0.159 |
| CCTAGAAG | -0.198 |
| CTGAATTC | -0.0448 |
| ATGTTCCA | -0.0954 |
| AGGCTTCA | -0.213 |
| ACTGGAGG | -0.183 |
| AGATAGTG | 0.0368 |
| GCCGCGCC | -0.148 |
| GCTACCAA | -0.00248 |
| AAAGCCTG | -0.0222 |
| GCGTTGCA | -0.0751 |
| TAGGCCTA | -0.0347 |
| GCCTCGAA | -0.196 |
| ATAGGGAC | -0.137 |
| AATGAAAA | 0.0679 |
| AATGGTGG | -0.237 |
| ACTGTCGG | 0.00864 |
| AGACTGTA | 0.0873 |

| Sequence | PBM E-score |
| --- | --- |
| ATCACGTC | 0.049 |
| AGGTTATC | -0.22 |
| CCGTCCAC | -0.174 |
| TCCTGAAA | -0.134 |
| GTGGCGCA | -0.231 |
| CTACGATA | -0.0194 |
| CCTATTCC | -0.165 |
| ATAAAAGA | -0.0767 |
| GCTCTAAA | -0.062 |
| GCGTCGGA | -0.057 |
| AGATCGGG | -0.188 |
| AGGTTCGA | -0.0448 |
| AATGATTG | 0.358 |
| ACAAAGCC | -0.117 |
| TAAACACA | 0.162 |
| AGGATCCG | -0.3 |
| ATGTCAAC | -0.0839 |
| AGTCGGAA | 0.318 |
| TCCAGCAA | 0.0178 |
| GGGTGACA | -0.103 |
| AGCAGAAT | 0.0596 |
| CGGTTTAG | -0.1 |
| AGGGAACT | -0.156 |
| GCTATGGA | -0.0809 |
| GACGGACC | -0.147 |

| Sequence | PBM E-score |
| --- | --- |
| ATGAATAA | 0.119 |
| CGCGCATC | -0.131 |
| CTCCTTCC | -0.0954 |
| ACGCAGAT | 0.0138 |
| ATCTGGGA | -0.204 |
| CAAGGGCG | -0.197 |
| CAAGATTC | 0.163 |
| CTGCTTGA | 6e-05 |
| ACGCTTGG | -0.234 |
| ATATATGC | -0.207 |
| GAATCAGA | 0.402 |
| AGATAGAC | 0.0882 |
| AGCTAACT | 0.0295 |
| ACAGTATC | -0.24 |
| AGTCAAGC | 0.358 |
| ACGCGCCA | -0.308 |
| CGATGGTA | -0.104 |
| CAAAGGAC | 0.0351 |
| ATTTTTAA | 0.101 |
| GCAACACC | -0.05 |
| CCACCCAA | -0.165 |
| GACGATGC | -0.0834 |
| AATAACGG | -0.0446 |
| TCGCGAGA | 0.0767 |
| AGCTACGG | -0.0957 |

| Sequence | PBM E-score |
| --- | --- |
| GCCGTTAC | -0.0578 |
| ATAAGGAG | 0.0799 |
| CTCCTGTC | 0.128 |
| GGTGGCAC | -0.381 |
| CTCCATCA | 0.089 |
| AATGGGCA | -0.238 |
| CGAAACCG | -0.08 |
| CAACTATC | 0.0162 |
| GCCACAGA | -0.241 |
| AAAAATGA | 0.218 |
| CAACAAGG | 0.0353 |
| CTGTGCAC | -0.129 |
| CGCGCAAA | -0.0184 |
| AAGGGCCA | -0.0545 |
| TCCACTAA | 0.0132 |
| CTGGGTAA | 0.133 |
| ATAACATA | -0.0209 |
| ACTGCGTA | 0.0638 |
| CGCCCGAG | -0.0276 |
| ACTCCTAA | 0.156 |
| AATGGCCA | -0.195 |
| ACCCCGAT | -0.266 |

From the supplement of paper PMC3334620
